Test results as given in article PMC4948766, “The Eukaryotic-Specific ISD11 Is a Complex-Orphan Protein with Ability to Bind the Prokaryotic IscS” (PLoS ONE, 2016).

Experiments:
[1] = molecular target: the molecule itself; assay: SEC; freshly purified samples from SEC, concentration of the purified fraction less than 0.5 mg/ml
[2] = molecular target: T1, His10-tagged IscS, separately purified (E. coli, UniProt P0A6B7 1-404); assay: SEC; analytical SEC at 280 nm of separately purified IscS-His10 (30 μM) and ISD11 (150 μM) mixed in a ratio of 1 to 5, compared with isolated IscS; details: both partners purified
T1 construct: cysteine desulfurase IscS, E. coli; The methods describe IscS with an N-terminal His-tag that is removed by TEV; also called IscS-His10; IscS-His
T1 sequence (looked up): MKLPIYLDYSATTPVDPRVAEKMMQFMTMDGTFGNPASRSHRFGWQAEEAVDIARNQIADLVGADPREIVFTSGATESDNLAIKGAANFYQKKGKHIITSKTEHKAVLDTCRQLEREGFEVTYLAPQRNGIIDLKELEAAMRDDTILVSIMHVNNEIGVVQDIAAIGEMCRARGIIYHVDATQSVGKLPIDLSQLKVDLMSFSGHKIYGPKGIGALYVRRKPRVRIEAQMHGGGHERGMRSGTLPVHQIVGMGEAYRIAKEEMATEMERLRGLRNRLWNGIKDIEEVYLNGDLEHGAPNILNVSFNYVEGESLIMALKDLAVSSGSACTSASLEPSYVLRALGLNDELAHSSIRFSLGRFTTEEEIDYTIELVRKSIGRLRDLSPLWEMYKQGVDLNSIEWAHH

binding result [2]: binds
B1: human ISD11 (expressed as GST-ISD11 from pZM96, GST removed with thrombin) (natural protein)
chain: not shown
notes: five additional amino acids left at the N-terminus after thrombin cleavage; ISD11 (LYRM4), human, full length; In the co-purification with endogenous IscS the GST tag was still on during the glutathione step and was cleaved before the SEC step in which IscS co-eluted; also called [U-15N]-ISD11; ISD11 (purified by GST-tag); source: E. coli Rosetta2 (DE3)pLysS, purified (Glutathione Sepharose 4B, …)
stoichiometry N [1]: 2
